For 70 compounds, viability index results are on record in the supplement of paper PMC4723716.

± gives the uncertainty stated by the source. Over roughly 9,900 compounds, “viability index relative to DMSO control” has its median near 1; the lowest 2% begin near 0.85. The list shows a part of the results.

The assay deals with Plasmodium falciparum NF54 stage V gametocytes. Nature of the assay: viability index relative to DMSO control (fraction); higher = less gametocyte killing. The conditions noted are these: 2.5 µM, library set: Broad Institute DOS, incubation time: 72 h. The procedure, abridged:
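P. falciparum NF54 stage V gametocytes in serum-free screening medium (0.75% gametocytemia, 1.25% hematocrit, 10 µl) were incubated with compound at 2.5 µM in 1,536-well plates for 72 hr at 37°C under low oxygen. Then 3 µl of 2.5 µM MitoTracker Red CMXRos plus 0.13% saponin was added for one to two hours. One field per well was imaged, 20–70 µm2 red particles were counted, and the viability index was the count divided by the plate mean of DMSO wells.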
In the case of `OC[C@@H]1[C@@H](c2ccccc2)C2(CN(Cc3nccs3)C2)N1CC1CCOCC1`, the viability index is 1.04 ± 0.06.

Compound `C[C@@H]1C/C=C/C[C@H](c2cccc(Cl)c2)NC(=O)[C@@H](Cc2ccccc2)N(C)C(=O)c2ccccc2O1.C[C@@H]1C/C=C\C[C@H](c2cccc(Cl)c2)NC(=O)[C@@H](Cc2ccccc2)N(C)C(=O)c2ccccc2O1` showed a viability index of 0.9516 ± 0.0088.

For `O=C1CCC(=O)N[C@H](c2ccc(F)cc2)C/C=C\C[C@@H](c2ccc(F)cc2)N1`, the viability index came out at 0.946 ± 0.032.

Take `CC(C)C#Cc1ccc([C@@H]2[C@H]3CN(S(=O)(=O)c4ccccc4)CC(=O)N3[C@H]2CO)cc1`: the viability index was 0.976 ± 0.091.

As for `C[C@@H]1CN([C@H](C)CO)C(=O)c2cc(C#CC3(O)CCCC3)cnc2O[C@H]1CN(C)S(=O)(=O)c1cccc(F)c1`, the viability index was found to be 1.03 ± 0.049.

For `C[C@@H]1CN([C@@H](C)CO)C(=O)Cc2cc(N(C)C)ccc2O[C@H]1CN(C)Cc1ccc(-c2ccccc2)cc1`, the viability index amounted to 0.902 ± 0.065.

The compound `Cc1noc(C)c1NC(=O)Nc1ccc2c(c1)C(=O)N(C)[C@H]1CC[C@H](CC(=O)N[C@H]3CCN(Cc4ccccc4)C3)O[C@H]1CO2` came in with a viability index of 1 ± 0.08.

`COc1ccc2c3c([nH]c2c1)[C@H](CO)N(C[C@]31CCN(Cc2ccncc2)CC1)C(=O)CC1CC1` showed a viability index of 0.934 ± 0.098.

Regarding `CC1C=NC(S(=O)(=O)N2CC[C@H]3[C@@H](CO)N(C)c4ccc(C5=CCCCC5)cc4[C@H]32)=N1` (stereo not given in full), the viability index came out at 1.15 ± 0.072.

For `N#Cc1ccc(-c2cccc(-c3nc(C(=O)O)cc4c3[C@H](CCO)N(CC3CCOCC3)C4)c2)cc1`, the viability index was determined as 0.954 ± 0.064.

`COc1ccc(S(=O)(=O)Nc2ccc3c(c2)CC(=O)N([C@H](C)CO)C[C@@H](C)[C@H](CN(C)C(=O)Nc2c(C)noc2C)O3)cc1` gave a viability index of 0.936 ± 0.14.

Compound `COc1ccccc1-c1ccc([C@@H]2[C@H](CO)N3CCCCN(C(=O)c4cccnc4)C[C@@H]23)cc1` showed a viability index of 0.978 ± 0.029.

In turn, `OC[C@H]1[C@H](c2ccc(-c3cccc(F)c3)cc2)[C@H]2CN(Cc3cncnc3)CCCCN21` showed a viability index of 0.974 ± 0.075.

Compound `CN(C)CC#Cc1ccc([C@@H]2[C@@H](CO)N3C(=O)CN(C(=O)CN(C)C)C[C@H]23)cc1` yielded a viability index of 0.989 ± 0.024.

`COc1ccc(S(=O)(=O)Nc2cccc3c2O[C@H](CN(C)CC2CCCCC2)[C@@H](C)CN([C@H](C)CO)C3=O)cc1` returned a viability index of 0.913 ± 0.053.

`CN1CCN(C(=O)C[C@H]2CC[C@@H]3[C@H](COc4ccc(NC(=O)C5CCOCC5)cc4C(=O)N3C)O2)CC1` had a viability index of 1.08 ± 0.019.

Regarding `COc1ccc2c3c([C@H](CO)N(Cc4cc(OC)cc(OC)c4)C[C@]33CCN(CC3)S(=O)(=O)c3cn(C)cn3)n(C)c2c1`, the viability index came out at 0.981 ± 0.032.

With `CC(C)NC(=O)Nc1ccc2c(c1)C(=O)N([C@H](C)CO)C[C@H](C)[C@H](CN(C)C(=O)C1CCCCC1)OCCCC[C@@H](C)O2`, the viability index was determined as 1.03 ± 0.018.

As to `Cc1noc(C)c1NC(=O)N1C[C@@H](O)COC[C@H]2O[C@@H](CC(=O)N[C@@H]3CCN(Cc4ccccc4)C3)CC[C@@H]21`, the viability index worked out at 0.994 ± 0.052.

`O=C(NC[C@H]1[C@@H](c2ccccc2)[C@H](CO)N1Cc1cccnc1)c1ccccn1` came in with a viability index of 1.025 ± 0.0078.

`COCC#Cc1ccc2c(c1)O[C@@H](CN(C)C(=O)C1CCOCC1)[C@H](C)CN([C@@H](C)CO)S2(=O)=O` showed a viability index of 1.05 ± 0.063.

For the compound `O=C(Nc1cccc(Cl)c1)N[C@@H]1CC[C@H](CCn2cc(Cc3ccccc3)nn2)O[C@H]1CO`, the viability index stood at 1.15 ± 0.057.

In turn, `OC[C@H]1[C@H](c2ccc(C#CC3(O)CCCC3)cc2)[C@@H]2CN(Cc3cncnc3)CCCCN12` came in with a viability index of 1.05 ± 0.052.

`O=C(c1cccc(F)c1)N1CC(=O)N2[C@@H](CO)[C@H](c3ccc(C4=CCCCC4)cc3)[C@@H]2C1` registered a viability index of 1.05 ± 0.043.

With `C[C@H](CO)N1C[C@H](C)[C@@H](CN(C)C(=O)CCC(F)(F)F)OCCCC[C@H](C)Oc2ccc(NC(=O)C3CCCCC3)cc2C1=O`, the viability index is 1.12 ± 0.084.

Turning to `COc1ccc(cc1)S(=O)(=O)N1C[C@@]2(C1)CN([C@@H](CO)c1c2c2ccc(OC)cc2n1C)C(=O)c1cccnc1`, the viability index came to 0.976 ± 0.063.

`N#C[C@@H]1[C@@H](c2ccccc2-c2ccccc2)[C@H](CO)N1C(=O)Cc1ccncc1` displayed a viability index of 1.1 ± 0.2.

In the case of `COc1ccccc1-c1ccc2n(c1=O)C[C@@H]1[C@@H](CO)[C@H](C(=O)NCc3ccccc3Cl)N[C@H]21`, the viability index worked out at 1.03 ± 0.013.

Take `CN(C)C(=O)c1cccc(-c2ccccc2[C@H]2[C@@H](C#N)N(C(=O)C3CCCCC3)[C@H]2CO)c1`: the viability index came to 1.06 ± 0.038.

The compound `CN(C)CC#Cc1ccc([C@@H]2[C@H](C#N)N[C@@H]2CO)cc1` showed a viability index of 1.12 ± 0.092.

`O=C1C[C@H](c2ccccc2)C(=O)N[C@@H](c2ccccc2)C/C=C\C[C@@H](c2ccccc2)N1` gave a viability index of 0.971 ± 0.084.

For the compound `C[C@@H]1CN([C@H](C)CO)C(=O)c2cc(NS(=O)(=O)c3ccc(F)cc3)ccc2O[C@@H]1CN(C)C(=O)Nc1ccccc1`, the viability index was 0.966 ± 0.11.

In the case of `O=C(C[C@H]1CC[C@H](NC(=O)CN2CCOCC2)[C@@H](CO)O1)NC1CCC1`, the viability index came out at 1.1 ± 0.052.

In the case of `O=C(c1cccc(F)c1)N1CCCCN2[C@H](CO)[C@H](c3ccc(C#CC4(O)CCCC4)cc3)[C@@H]2C1`, the viability index worked out at 1.03 ± 0.052.

Compound `CCCC(=O)N1C[C@@]2(C1)CN([C@H](CO)c1c2c2ccc(OC)cc2n1C)C(=O)Nc1cccc(F)c1` came in with a viability index of 0.9437 ± 0.0032.

Consider `CC(C)N(C[C@@H]1N[C@@H](CO)[C@@H]1c1ccccc1)S(=O)(=O)c1ccccc1`, for which the viability index was found to be 0.9764 ± 0.0057.

The compound `COc1ccc(C[C@@H]2CCn3nncc3COC[C@H](c3ccccc3)NC2=O)cc1` showed a viability index of 0.984 ± 0.013.

Take `CS(=O)(=O)Nc1ccc2c(c1)[C@H]1C[C@@H](CC(=O)NCCc3ccccc3)O[C@@H](CO)[C@H]1O2`: the viability index turned out to be 1.02 ± 0.11.

In the case of `Cc1ccc(S(=O)(=O)N(C)C[C@H]2Oc3c(NS(C)(=O)=O)cccc3C(=O)N([C@@H](C)CO)C[C@@H]2C)cc1`, the viability index amounted to 1.01 ± 0.067.

Turning to `CC(C)N(C[C@@H]1[C@@H](c2ccccc2)[C@@H](CO)N1S(C)(=O)=O)C(=O)CN(C)C`, the viability index came to 1.016 ± 0.006.

The compound `CCCC#Cc1ccc([C@@H]2[C@H]3CN(C(=O)Nc4cccc(F)c4)CC(=O)N3[C@H]2CO)cc1` gave a viability index of 1.04 ± 0.031.

Compound `O=C(C[C@H]1CC[C@@H]2[C@H](COC[C@@H](O)CN2Cc2ccc3c(c2)OCO3)O1)N1CCCCC1` yielded a viability index of 1.0068 ± 0.00093.

For the compound `COC(=O)C[C@H]1CC[C@@H]2[C@@H](COc3ccc(NS(=O)(=O)c4ccc(C)cc4)cc3C(=O)N2C)O1`, the viability index was determined as 1.1 ± 0.045.

`CCCNC(=O)N1CC2(C1)[C@H](c1ccccc1)[C@H](CO)N2CC1CCOCC1` returned a viability index of 1.04 ± 0.053.

Take `CCCNC(=O)N1C[C@]2(CN(Cc3cccnc3)C2)c2c([C@H]1CO)n(C)c1cc(OC)ccc21`: the viability index turned out to be 1.03 ± 0.2.

As for `CO[C@H](CN(C)CC1CCOCC1)[C@H](C)CN(C(=O)Nc1ccc(F)cc1)[C@@H](C)CO`, the viability index stood at 1.028 ± 0.0033.

Regarding `COc1ccc2c3c([nH]c2c1)[C@H](CO)N(Cc1cccnc1)C[C@]31CCN(CC1)C(=O)CN(C)C`, the viability index was determined as 0.93 ± 0.046.

With `Cc1noc(C)c1NC(=O)N(C)C[C@H]1Oc2c(NC(=O)CCC(F)(F)F)cccc2C(=O)N([C@H](C)CO)C[C@@H]1C`, the viability index was 1.03 ± 0.066.

For `Cc1ccc(S(=O)(=O)Nc2ccc3c(c2)C(=O)N([C@H](C)CO)C[C@H](C)[C@@H](CN(C)Cc2ccc(C(F)(F)F)cc2)O3)cc1`, the viability index was 0.937 ± 0.055.

For `C[C@@H]1CN([C@H](C)CO)C(=O)Cc2cc(NC(=O)Cn3cnnn3)ccc2O[C@@H]1CN(C)S(=O)(=O)c1ccc(Cl)cc1`, the viability index came out at 1.08 ± 0.087.

In turn, `C[C@H]1CN([C@@H](C)CO)C(=O)c2ccccc2-c2ccccc2CO[C@H]1CN(C)C(=O)[C@@H](Cc1ccccc1)N(C)C` had a viability index of 1.08 ± 0.0022.

Compound `COc1ccc2c3c([nH]c2c1)[C@H](CO)N(C[C@]31CN(C1)C(=O)Nc1cccc(F)c1)C(=O)c1cccnc1` displayed a viability index of 1.03 ± 0.026.

The compound `O=C1CNC[C@H]2[C@@H](c3ccc(-c4ccccc4F)cc3)[C@@H](CO)N12` came in with a viability index of 0.994 ± 0.034.

For the compound `CC(C)CC#Cc1ccc([C@@H]2[C@H]3CN(C(=O)Nc4cc(F)ccc4F)CC(=O)N3[C@H]2CO)cc1`, the viability index came to 1.06 ± 0.053.

The compound `COc1ccc(CNC(=O)C[C@H]2C[C@@H]3c4cc(N(C)C)ccc4O[C@@H]3[C@H](CO)O2)cc1` registered a viability index of 1.19 ± 0.035.

Compound `C[C@@H]1CN([C@H](C)CO)S(=O)(=O)c2ccc(C#Cc3ccccc3F)cc2O[C@@H]1CN(C)C(=O)Cc1cccnc1` displayed a viability index of 0.983 ± 0.017.

Regarding `CO[C@H]1CN(C)C(=O)c2cc(NC(C)=O)ccc2OC[C@@H](C)N(Cc2ccncc2)C[C@@H]1C`, the viability index came out at 1.073 ± 0.0071.

Take `O=C(Nc1cccc(Cl)c1)N[C@H]1CC[C@H](CCn2cc(Cc3ccccc3)nn2)O[C@@H]1CO`: the viability index is 1.1 ± 0.031.

`C[C@H](CO)N1C[C@H](C)[C@H](CN(C)S(=O)(=O)c2ccccc2C#N)OCc2ccccc2-c2c(n(C)c3ccccc23)C1=O` returned a viability index of 1.02 ± 0.057.

`CN(C)CC(=O)N1CC2(C1)[C@H](c1ccccc1)[C@H](CO)N2Cc1cc(F)ccc1F` yielded a viability index of 1.04 ± 0.056.

Compound `O=C(CN1CCOCC1)N1CC[C@@H]2[C@H]1c1cc(-c3ccccc3F)ccc1N[C@@H]2CO` gave a viability index of 1.02 ± 0.024.

Compound `O=C(NC1CCCCC1)N1C[C@@H]2N[C@H](C1)[C@@H]2c1ccc(-c2ccc(F)cc2)cc1` registered a viability index of 1.02 ± 0.08.

`C[C@H](CO)N1C[C@H](C)[C@H](CN(C)Cc2ccc(-c3ccccc3)cc2)Oc2c(NS(C)(=O)=O)cccc2C1=O` came in with a viability index of 0.827 ± 0.011.

Regarding `C[C@@H]1CN([C@H](C)CO)C(=O)c2ccccc2-c2ccccc2CO[C@@H]1CN(C)Cc1cccnc1`, the viability index is 0.999 ± 0.019.

In turn, `O=C(NC1CCCC1)N1CCCCN2[C@@H](CO)[C@H](c3ccc(-c4cccnc4)cc3)[C@@H]2C1` yielded a viability index of 1.065 ± 0.0056.

In the case of `O=C(NC[C@H]1[C@H](c2ccccc2)[C@H](CO)N1Cc1ccccn1)C1CCCC1`, the viability index worked out at 0.997 ± 0.059.

The compound `C/C=C/c1ccc([C@@H]2[C@H]3CNC[C@@H]2N3S(=O)(=O)c2cccc(F)c2)cc1` yielded a viability index of 1.09 ± 0.036.

Take `O=C(CC1CC1)N1CC(=O)N2[C@@H](CO)[C@H](c3ccc(/C=C/c4ccccc4)cc3)[C@@H]2C1`: the viability index turned out to be 1.034 ± 0.0053.

`COc1cccc(S(=O)(=O)N2CC[C@@H]3[C@@H](CO)Nc4ccc(C#Cc5cccnc5)cc4[C@@H]32)c1` displayed a viability index of 1.15 ± 0.025.

As for `C[C@H]1CN([C@@H](C)CO)C(=O)Cc2cc(N(C)C)ccc2O[C@H]1CN(C)Cc1ccc(-c2ccccc2)cc1`, the viability index was 0.979 ± 0.06.
